The results in this text go back to a collection of fitness landscapes (doi:10.1016/j.celrep.2020.107928).

To fix the notation:
B1: Caulobacter ParB omega fusion; a variant is named by its letters at X, in order, B8GW30 (parent)
chain: MESVVVGEPGMSEGRRGLGRGLSALLGEVDAAPAQAPGEQLGGSREAPIEILQRNPDQPRRTFREEDLEDLSNSIREKGVLQPILVRPSPDTAGEYQIVAGERAWRAAQRAGLKTVPIMVRELDDLAVLEIGIIENVQRADLNVLEEALSYKVLMEKFERTQENIAQTIGKSXSHVANXMRLLXLPDEVQSYLVSGELTAXHARAIAAAADPVALAKQIIEGGLSVRETEALARKAPNLSAGKSKGGRPPRVKDTDTQALESDLSSVLGLDVSIDHRGSTGTLTITYATLEQLDDLCNRLTRGI

Whole data set: some 81,000 sequences, median “one-hybrid fitness for binding NBS DNA” near -0.1, cut for the highest 2% near 0.36. This is one part of the list.

The assay covers variants of B1. Kind of assay: one-hybrid fitness for binding NBS DNA (the Noc-binding site; scaled: cognate 1, non-cognate 0); higher = stronger binding. The settings on record: with NBS DNA site. The essentials: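 Caulobacter ParB libraries with four specificity codons randomised were screened by bacterial one-hybrid selection in the E. coli USO strain, using a HIS3 reporter whose site lies 19 bp from the promoter. Selection ran for 48 hours at 37°C on M9 lacking histidine, with 0.1 mM IPTG and 5 mM 3-AT. Plasmids were Illumina-sequenced before and after selection, three replicate libraries were pooled, and variants with under 10 reads were dropped. Fitness is the log change in each variant's read ratio to wild type, rescaled against the cognate and non-cognate sites.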
Take RDES: the “one-hybrid fitness for binding NBS DNA” value is at most 0.2.

KWSS: the “one-hybrid fitness for binding NBS DNA” value was at most 0.2.

NCPW: the “one-hybrid fitness for binding NBS DNA” value was at most 0.2.

For TPSY, the “one-hybrid fitness for binding NBS DNA” value is at most 0.2.

Regarding TTTE, the “one-hybrid fitness for binding NBS DNA” value is at most 0.2.

Take LCDS: the “one-hybrid fitness for binding NBS DNA” value was at most 0.2.

As for QADK, the “one-hybrid fitness for binding NBS DNA” value was at most 0.2.

In the case of QPER, the “one-hybrid fitness for binding NBS DNA” value was at most 0.2.

YVED: the “one-hybrid fitness for binding NBS DNA” value was at most 0.2.

NDVD: the “one-hybrid fitness for binding NBS DNA” value was at most 0.2.

With SAPW, the “one-hybrid fitness for binding NBS DNA” value was at most 0.2.

HENC: the “one-hybrid fitness for binding NBS DNA” value was at most 0.2.

With LNSA, the “one-hybrid fitness for binding NBS DNA” value was at most 0.2.

As for DVSS, the “one-hybrid fitness for binding NBS DNA” value is at most 0.2.

Consider GEWR, for which the “one-hybrid fitness for binding NBS DNA” value was at most 0.2.

As to HEQT, the “one-hybrid fitness for binding NBS DNA” value is at most 0.2.

With APIV, the “one-hybrid fitness for binding NBS DNA” value is at most 0.2.

On to SMLG, for which the “one-hybrid fitness for binding NBS DNA” value was at most 0.2.

For the variant TIFS, the “one-hybrid fitness for binding NBS DNA” value is at most 0.2.

As for PYTY, the “one-hybrid fitness for binding NBS DNA” value was at most 0.2.

Regarding GYVS, the “one-hybrid fitness for binding NBS DNA” value is at most 0.2.

For KEPN, the “one-hybrid fitness for binding NBS DNA” value was at most 0.2.

Take EARW: the “one-hybrid fitness for binding NBS DNA” value is at most 0.2.

On to DQTL, for which the “one-hybrid fitness for binding NBS DNA” value is at most 0.2.

For the variant TAKR, the “one-hybrid fitness for binding NBS DNA” value was determined as 0.271.

Take CYMG: the “one-hybrid fitness for binding NBS DNA” value is at most 0.2.

As for WQAS, the “one-hybrid fitness for binding NBS DNA” value is at most 0.2.

In the case of PKIN, the “one-hybrid fitness for binding NBS DNA” value was at most 0.2.

As for RVIR, the “one-hybrid fitness for binding NBS DNA” value worked out at 0.242.

As for AYLM, the “one-hybrid fitness for binding NBS DNA” value is at most 0.2.

Turning to ARSD, the “one-hybrid fitness for binding NBS DNA” value is at most 0.2.

Take HDTR: the “one-hybrid fitness for binding NBS DNA” value is at most 0.2.

For the variant QIVA, the “one-hybrid fitness for binding NBS DNA” value is at most 0.2.

Take RSAP: the “one-hybrid fitness for binding NBS DNA” value is at most 0.2.

With AWLE, the “one-hybrid fitness for binding NBS DNA” value was at most 0.2.

As for TGAE, the “one-hybrid fitness for binding NBS DNA” value is at most 0.2.

GRQN: the “one-hybrid fitness for binding NBS DNA” value was at most 0.2.

Take IHPF: the “one-hybrid fitness for binding NBS DNA” value is at most 0.2.

Turning to IKQF, the “one-hybrid fitness for binding NBS DNA” value was at most 0.2.

For ELPG, the “one-hybrid fitness for binding NBS DNA” value is at most 0.2.

Take CHRS: the “one-hybrid fitness for binding NBS DNA” value was at most 0.2.

As to SLRI, the “one-hybrid fitness for binding NBS DNA” value was at most 0.2.

In the case of GTWV, the “one-hybrid fitness for binding NBS DNA” value was at most 0.2.

In the case of QTAG, the “one-hybrid fitness for binding NBS DNA” value is at most 0.2.

Take QHKN: the “one-hybrid fitness for binding NBS DNA” value stood at 0.427.

In the case of SVND, the “one-hybrid fitness for binding NBS DNA” value was at most 0.2.

Consider VFKR, for which the “one-hybrid fitness for binding NBS DNA” value is at most 0.2.

As for RWMH, the “one-hybrid fitness for binding NBS DNA” value was at most 0.2.

In the case of FGHM, the “one-hybrid fitness for binding NBS DNA” value is at most 0.2.

Take CHYG: the “one-hybrid fitness for binding NBS DNA” value is at most 0.2.

For the variant CLDK, the “one-hybrid fitness for binding NBS DNA” value was at most 0.2.

For the variant WRPG, the “one-hybrid fitness for binding NBS DNA” value was at most 0.2.

As to TRTS, the “one-hybrid fitness for binding NBS DNA” value is at most 0.2.

For FKYC, the “one-hybrid fitness for binding NBS DNA” value is at most 0.2.

On to KPEY, for which the “one-hybrid fitness for binding NBS DNA” value was at most 0.2.

As for HPNF, the “one-hybrid fitness for binding NBS DNA” value is at most 0.2.

Consider NLNS, for which the “one-hybrid fitness for binding NBS DNA” value was at most 0.2.

With YTSG, the “one-hybrid fitness for binding NBS DNA” value is at most 0.2.

For the variant TNIS, the “one-hybrid fitness for binding NBS DNA” value is at most 0.2.

For the variant PNLI, the “one-hybrid fitness for binding NBS DNA” value was at most 0.2.

For GRNC, the “one-hybrid fitness for binding NBS DNA” value was at most 0.2.

Take IMIS: the “one-hybrid fitness for binding NBS DNA” value was at most 0.2.

RKWT: the “one-hybrid fitness for binding NBS DNA” value was found to be 0.456.

In the case of HRNW, the “one-hybrid fitness for binding NBS DNA” value was at most 0.2.

EIAP: the “one-hybrid fitness for binding NBS DNA” value is at most 0.2.

CSHM: the “one-hybrid fitness for binding NBS DNA” value is at most 0.2.

Take DDRS: the “one-hybrid fitness for binding NBS DNA” value was at most 0.2.

For YAAI, the “one-hybrid fitness for binding NBS DNA” value was at most 0.2.

NPGG: the “one-hybrid fitness for binding NBS DNA” value was at most 0.2.

As to RMNH, the “one-hybrid fitness for binding NBS DNA” value turned out to be 0.26.

In the case of CVAA, the “one-hybrid fitness for binding NBS DNA” value is at most 0.2.

With WYCT, the “one-hybrid fitness for binding NBS DNA” value was at most 0.2.

Regarding LTQK, the “one-hybrid fitness for binding NBS DNA” value is at most 0.2.

Turning to RWEM, the “one-hybrid fitness for binding NBS DNA” value is at most 0.2.

For PATE, the “one-hybrid fitness for binding NBS DNA” value was at most 0.2.

For the variant ARHL, the “one-hybrid fitness for binding NBS DNA” value is at most 0.2.

For the variant NNPW, the “one-hybrid fitness for binding NBS DNA” value is at most 0.2.

On to VDWR, for which the “one-hybrid fitness for binding NBS DNA” value was at most 0.2.

As for RQFE, the “one-hybrid fitness for binding NBS DNA” value was at most 0.2.

Consider NAKS, for which the “one-hybrid fitness for binding NBS DNA” value is at most 0.2.

With LITD, the “one-hybrid fitness for binding NBS DNA” value is at most 0.2.

Take QTIG: the “one-hybrid fitness for binding NBS DNA” value is at most 0.2.

Regarding THTR, the “one-hybrid fitness for binding NBS DNA” value is at most 0.2.

In the case of WHRG, the “one-hybrid fitness for binding NBS DNA” value is at most 0.2.

Turning to FISS, the “one-hybrid fitness for binding NBS DNA” value is at most 0.2.

As to VCHS, the “one-hybrid fitness for binding NBS DNA” value is at most 0.2.

As for GPHE, the “one-hybrid fitness for binding NBS DNA” value was at most 0.2.

For the variant ETDT, the “one-hybrid fitness for binding NBS DNA” value is at most 0.2.

With ADSG, the “one-hybrid fitness for binding NBS DNA” value is at most 0.2.

Turning to CPHS, the “one-hybrid fitness for binding NBS DNA” value was at most 0.2.

Consider VGSS, for which the “one-hybrid fitness for binding NBS DNA” value is at most 0.2.

For the variant QYPF, the “one-hybrid fitness for binding NBS DNA” value is at most 0.2.

Turning to GRRE, the “one-hybrid fitness for binding NBS DNA” value is at most 0.2.

On to NAWL, for which the “one-hybrid fitness for binding NBS DNA” value was at most 0.2.

On to FSMI, for which the “one-hybrid fitness for binding NBS DNA” value was at most 0.2.

TQSR: the “one-hybrid fitness for binding NBS DNA” value was at most 0.2.

KLGG: the “one-hybrid fitness for binding NBS DNA” value was at most 0.2.

GFGL: the “one-hybrid fitness for binding NBS DNA” value is at most 0.2.
